# Reference: PubChem BioAssay (NCATS)
# This list was built around the results that the source calls inconclusive (neither active nor inactive); the mix of calls is not that of the screen. For some assays here: Potencies of inconclusive entries are left out as doubtful fits. Calls of active or inactive are those of the source. Calls come from the whole dose curve; as a rule, active = well fitted curve in the direction sought with a large enough effect; inconclusive = small, poorly fitted or top-dose-only effect, or another doubt; inactive = no such curve, though single readings can be large; an effect the other way counts as inactive or inconclusive.
# Key:
# [1] = qHTS for differential inhibitors of proliferation of Plasmodium falciparum line D10 (AID 1877);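 note: parasites grown with compound for 72 h before DNA staining; plate controls were vehicle wells for no effect and reference inhibitor wells for full effect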
# [2] = qHTS of pediatric cancer cell lines to identify multiple opportunities for drug repurposing: Primary screen for NB1643 cells (AID 1347099); note: potency is the fitted concentration of half-maximal effect; nearly all actives have a fitted effect of over 50% in size
# Outline: (§1)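 Quantitative HTS format: each compound titrated (MIPE 11 points from 0.78 nM, NPC 8 points from 0.59 nM) onto cells plated 5 hours earlier. After 48 h at 37 degrees C, CellTiter-Glo luminescence was recorded.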
# [3] = qHTS of pediatric cancer cell lines to identify multiple opportunities for drug repurposing: Primary screen for Rh30 cells (AID 1347107); note: nearly all actives have a fitted effect of over 75% in size; note: potency is the fitted concentration of half-maximal effect
# Outline: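 Viability after 48 h compound treatment at 37C, 500-1,000 cells/well, read as ATP luminescence with CellTiter-Glo. Primary screens used 11-point (MIPE, 0.78 nM-46 µM) or 8-point (NPC, 0.59 nM-46 µM) final concentrations; follow-up screens used 11-point dilutions.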
# [4] = Quantitative High-Throughput drug screen in 47 multiple myeloma cell lines against the NCATS MIPE library collection: KMS12PE_JCRB cell viability assay (AID 1918972); note: nearly all actives have a fitted effect of over 30% in size
# Outline: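 Myeloma cell lines, 500 cells per well, exposed to MIPE 4.0 library compounds for 48 h at 37C, 5% CO2. Viability from ATP by CellTiter-Glo luminescence; normalised to DMSO (100%) and media-only (0%) wells.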
# [5] = Quantitative High-Throughput drug screen in 47 multiple myeloma cell lines against the NCATS MIPE library collection: KMS21BM_JCRB cell viability assay (AID 1918974); settings: ATP luminescence, 48 h; viability: at 45.8 µM (top of the series) unless noted; note: potency is the fitted concentration of half-maximal effect
# Outline: (§2)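 Luminescent ATP measurement with CellTiter-Glo gives viability, scaled between DMSO-only wells (100%) and media-only wells (0%). Cells, 500 per well, faced library compounds for 48 hours at 37C.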
# [6] = Quantitative High-Throughput drug screen in 47 multiple myeloma cell lines against the NCATS MIPE library collection: U266_ATCC cell viability assay (AID 1919864); note: nearly all actives have a fitted effect of over 35% in size; note: potency is the fitted concentration of half-maximal effect
# Outline: (§3)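 500 cells/well per myeloma line exposed to pinned MIPE 4.0 compounds for 48 h at 37 °C, 5% CO2. Viability read as ATP by CellTiter-Glo luminescence, normalised to DMSO-only (100%) and media-only (0%) wells.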
# [7] = Quantitative High-Throughput drug screen in 47 multiple myeloma cell lines against the NCATS MIPE library collection: PE2_PLB cell viability assay (AID 1919869); note: nearly all actives have a fitted effect of over 35% in size
# Outline: as §3
# [8] = Quantitative High-Throughput drug screen in 47 multiple myeloma cell lines against the NCATS MIPE library collection: RPMI8226_ATCC cell viability assay (AID 1919871); note: nearly all actives have a fitted effect of over 30% in size
# Outline: as §3
# [9] = qHTS for Inhibitors of ATXN expression: Validation (AID 588378); note: potency is the fitted concentration of half-maximal effect; nearly all actives have a fitted effect of over 75% in size
# Outline: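 Compounds were pinned onto attached HEK293 cells carrying an ATXN2-firefly luciferase construct and incubated 24 hrs at 37 degrees C. Each well then received a fluorescent viability reagent followed by luciferase substrate for end-point luminescence.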
# [10] = biological target: Glutaminase kidney isoform, mitochondrial (Homo sapiens) (UniProt O94925); assay: qHTS for Inhibitors of Glutaminase (GLS): LOPAC Validation (AID 624146); note: nearly all actives have a fitted effect of over 60% in size; note: potency is the fitted concentration of half-maximal effect
# Outline: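 Two-point fluorescence kinetic (t0, 30 min RT) for hKGA; glutamate detected via glutamate oxidase–HRP–Amplex Red. Substrate: 1 mM L-glutamine solution; buffer 45 mM KH2PO4, pH 8.2.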
# [11] = qHTS of pediatric cancer cell lines to identify multiple opportunities for drug repurposing: Primary screen for BT-37 cells (AID 1347094);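 note: plate controls were DMSO for no effect and bortezomib for full effect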
# Outline: as §1
# CP260 = assay: qHTS profiling for inhibitors of Plasmodium falciparum proliferation (AID 504749);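 note: 0% = DMSO vehicle and full inhibition = artemisinin control; nearly all actives have a fitted effect of over 60% in size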; settings: P. falciparum in erythrocytes, SYBR Green DNA, 72 h
# Outline: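 P. falciparum-infected erythrocytes (0.3% parasitemia, 2.5% hematocrit) incubated with compound 72 h at 37 C, 5% CO2. Parasite DNA detected by SYBR Green after lysis, overnight at room temperature; normalised to 0.29 uM artemisinin and DMSO.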
# [12] = Primary qHTS for inhibitors of nuclear receptor binding SET domain protein 2 (NSD2) in an RCH-ACV wild type WT cells (2C) (AID 1645877); note: nearly all actives have a fitted effect of over 70% in size; note: potency is the fitted concentration of half-maximal effect
# [13] = biological target: Phospholipid hydroperoxide glutathione peroxidase GPX4 (Homo sapiens) (UniProt P36969); assay: Primary qHTS Assay for Inhibitors of Recombinant Selenoprotein Glutathione Peroxidase 4 (GPX4) (AID 1845192); note: % is set by controls: 0 for no effect and ±100 for the full control effect; nearly all actives have a fitted effect of over 65% in size
# Outline: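 GR-coupled assay: recombinant GPX4 preincubated 30 min with compound at room temperature; final 200 nM GPX4, 1 mM GSH, 0.5 mM cumene hydroperoxide, 0.5 mM NADPH, 100 nM GR, 0.01% BSA, pH 7.5 Tris. NADPH fluorescence (340/450 nm) read at 0 and 15 min.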
# [14] = Quantitative High-Throughput drug screen in 47 multiple myeloma cell lines against the NCATS MIPE library collection: ARD_JJKsccE7 cell viability assay (AID 1918929); settings: ARD myeloma cell line viability, CellTiter-Glo, 48 h; viability: at 45.8 µM (top of the series)
# Outline: as §2
# [15] = Quantitative High-Throughput drug screen in 47 multiple myeloma cell lines against the NCATS MIPE library collection: Karpas25_ECACC cell viability assay (AID 1918968; note: nearly all actives have a fitted effect of over 35% in size)
# Outline: as §2
# [16] = Quantitative High-Throughput drug screen in 47 multiple myeloma cell lines against the NCATS MIPE library collection: LP1_DSMZ cell viability assay (AID 1918982); note: nearly all actives have a fitted effect of over 35% in size
# Outline: as §3
# Tags give direction and shape of the fitted curve.
# Chain of UniProt O94925 (O94925 whole entry, looked up, canonical isoform): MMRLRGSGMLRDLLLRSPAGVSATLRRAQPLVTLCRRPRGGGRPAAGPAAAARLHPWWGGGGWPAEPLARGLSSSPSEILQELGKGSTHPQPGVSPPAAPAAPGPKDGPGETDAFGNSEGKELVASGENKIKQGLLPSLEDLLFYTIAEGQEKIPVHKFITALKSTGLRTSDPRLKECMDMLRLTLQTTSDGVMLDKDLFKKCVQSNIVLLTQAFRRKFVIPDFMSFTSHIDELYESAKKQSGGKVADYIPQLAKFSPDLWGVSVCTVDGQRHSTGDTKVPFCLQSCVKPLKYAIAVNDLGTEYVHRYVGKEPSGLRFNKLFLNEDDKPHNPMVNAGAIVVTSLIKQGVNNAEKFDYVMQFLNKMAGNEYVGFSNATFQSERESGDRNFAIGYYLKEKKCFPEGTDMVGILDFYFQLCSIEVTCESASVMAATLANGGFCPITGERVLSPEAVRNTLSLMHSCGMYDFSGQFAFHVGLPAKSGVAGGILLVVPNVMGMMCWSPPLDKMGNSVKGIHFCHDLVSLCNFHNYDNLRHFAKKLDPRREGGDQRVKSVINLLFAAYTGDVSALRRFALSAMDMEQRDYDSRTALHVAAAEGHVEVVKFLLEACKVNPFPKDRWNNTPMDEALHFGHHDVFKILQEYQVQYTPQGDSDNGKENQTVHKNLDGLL
# Chain of UniProt P36969 (P36969 whole entry, looked up): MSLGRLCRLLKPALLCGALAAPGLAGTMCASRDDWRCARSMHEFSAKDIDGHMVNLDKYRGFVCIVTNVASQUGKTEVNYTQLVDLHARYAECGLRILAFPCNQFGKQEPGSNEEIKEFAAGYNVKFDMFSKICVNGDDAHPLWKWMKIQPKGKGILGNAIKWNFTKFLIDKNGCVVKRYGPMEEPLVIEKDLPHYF
smiles,measurement,setting,value
Cc1cccc(C(=O)NCN2CCN(c3ccccc3C#N)CC2)c1,Potency,[1],inactive
C[Se]CCC(N)C(=O)O (stereo unspecified),Potency,[2],"inconclusive [cytotoxic, single point]"
same,Potency,[3],"inconclusive [cytotoxic, partial curve, poor fit]"
same,Potency,[4],inactive
same,viability,[5],active: 325% [at 92.2 µM]
same,Potency,[6],inactive
same,Potency,[7],inactive
same,Potency,[8],inactive
CCCCC[C@H](CC(=O)NO)C(=O)N[C@H](C(=O)N1CCC[C@H]1CO)C(C)C,Potency,[9],"inconclusive [inhibitor, single point]"
same,Potency,[10],"inconclusive [inhibitor, partial curve]"
CCCc1ncc(C(=O)O)s1,Potency,[11],inactive
NCCS,Potency,CP260,inactive
O=C(O)c1ccc[n+]([O-])c1,Potency,[11],inactive
same,Potency,[12],"inconclusive [inhibitor, single point]"
Nc1ccc(C(=O)O)cc1,Potency,[11],inactive
O=C(Oc1ccccc1C(=O)O)c1ccccc1O,Potency,[12],inactive
same,Potency,CP260,inactive
C[N+](C)(C)CC=O,Potency,[13],inactive
CN1[C@H]2CC(OC(=O)[C@@H](CO)c3ccccc3)C[C@H]1[C@H]1O[C@H]12 (stereo partly specified),Potency,[2],"inconclusive [cytotoxic, single point]"
same,Potency,[3],inactive
same,Potency,[14],inactive
same,Potency,[15],inactive
same,Potency,[5],"inconclusive [cytotoxic, full curve, poor fit]"
same,Potency,[16],inactive
same,Potency,[6],inconclusive
O=C(O)c1cccnc1C(=O)O,Potency,[10],inactive
